Data from the supplement of paper PMC11417369.
Some of the results follow.

What follows are sequences tested on PfSIP2 AP2 domain 1 (GST-tagged) (assay: gcPBM binding intensity (ln(normalized median fluorescence intensity)); higher = stronger DNA binding).
Procedure, shortened: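 Alexa488 anti-GST antibody, scanned at 488 nm, detected GST-tagged P. falciparum DNA-binding domains that had been expressed in E. coli and incubated for 1 h on an Agilent 4 × 180k array. The array carried primer-extended double-stranded 36-bp intergenic genomic probes and negative controls. Binding intensity is the highest Masliner-normalised natural-log median intensity across replicate spots of either orientation of each probe.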

Compared with “TATAAAACACACACACATATATATATATATTTATAT [TGCATGCA_negctrl_site48]”, “AATTTTAAATTTAATTTACACACTTTTCATAGCATT [CACACA_site9264]” is lower in “gcPBM binding intensity (ln)” value: 7.27 for the first, 6.92 for the second.

Going from “ATTTACAAAAATTTTGTATAAAGGGATTTTAAAATG [TGCATGCA_negctrl_site350]” to “TTTTTTTTTTCTCCTGCATGCAGCATTTATATATTA [TGCATGCA_site390]”, the “gcPBM binding intensity (ln)” value falls from 7.18 to 6.93.

First: TATATATATATATATACATGCATTTTTGTTTGCTTA [TGCATGCA_site256]
Second: GACAACGTTTCAATGTGTACATATTTATAATATATA [XGTACX_site2427]
The “gcPBM binding intensity (ln)” value of the first is higher: 9.38 for the first, 7.06 for the second.

Going from “ATTGAAAAACCGTTTAGTACATATCATCACGTTTGT [XGTACX_site1295]” to “TATATATATATATGTACACACATCAATCATATTAAC [CACACA_site1946]”, the “gcPBM binding intensity (ln)” value rises from 6.88 to 9.47.

First: TTTTTTTTTTTTTTTACACACTGCATACAAGAAAAA [CACACA_site5642]
Second: AAAATACGAATATAAACATGCACCATATAGAACAAA [TGCATGCA_site925]
The “gcPBM binding intensity (ln)” value of the first is lower: 7.04 for the first, 10.7 for the second.

Going from “TAAAATAAAATAAGTAGTACATATATAATTATATAT [XGTACX_site6733]” to “TACAAATATAGATGCACACACATATACATACCTATA [CACACA_site7094]”, the “gcPBM binding intensity (ln)” value falls from 7.36 to 7.11.

Compared with “TTTTTACAAAAAAAAAAAAAAAAAATAAAAATAAAT [CACACA_negctrl_site1738]”, “GACGTGGAAAAAAAAACACACACAAAAAAAAAAAAA [CACACA_site9324]” is higher in “gcPBM binding intensity (ln)” value: 6.6 for the first, 7.11 for the second.

Going from “TGAACATCATTTTTATGTACACACACATATACGTTG [XGTACX_site3864]” to “AAAACAAACAAAAAAAAAAAAAAAAATATCAATCTA [TGCATGCA_negctrl_site203]”, the “gcPBM binding intensity (ln)” value falls from 7.06 to 6.52.

First: ATATATCATGCCAAGGGTACAAATGTGTAGTTGAAA [XGTACX_site2820]
Second: TTTTTTAAATATTATTTTTATGAGTAAATATATTAT [GTGCAC_negctrl_site277]
The “gcPBM binding intensity (ln)” value of the first is higher: 7.16 for the first, 6.71 for the second.

First: ATATTTATACTATACACACCCAATTTAAAAAAAAAT [CACACA_site1163]
Second: GAAAAATTAAAATGTGGTACAATAAAATTTTATTCA [XGTACX_site5030]
The “gcPBM binding intensity (ln)” value of the first is higher: 7.26 for the first, 6.96 for the second.

Compared with “AATTTATTAATACAAAGTACTTTCTAATATGAATTT [XGTACX_site8013]”, “TTATTGCGCACAATTTGTACATATATATATATAGAA [XGTACX_site7573]” is higher in “gcPBM binding intensity (ln)” value: 6.88 for the first, 7.35 for the second.

First: TATTGAAAAAGTGGAAAAAAGTACATCATACGGGAA [CACACA_negctrl_site1091]
Second: GTAAGAAACAGACACACACACATATAAATATAAATA [CACACA_site6515]
The “gcPBM binding intensity (ln)” value of the first is lower: 7.17 for the first, 7.29 for the second.
